Test results as given in PMC4336329 (PLoS ONE, 2015).
Among all 310,000 compounds or so, about 2,200 (0.71%) showed an effect of 50% or more. Effects have a minus sign here. Some of the results follow.

Each molecule was assayed against human ether-à-go-go-related gene (hERG) potassium channel (human, UniProt Q12809) (assay: primary screen, population patch clamp on CHO cells stably expressing hERG).
Sequence of human ether-à-go-go-related gene (hERG) potassium channel (Q12809 whole entry, looked up): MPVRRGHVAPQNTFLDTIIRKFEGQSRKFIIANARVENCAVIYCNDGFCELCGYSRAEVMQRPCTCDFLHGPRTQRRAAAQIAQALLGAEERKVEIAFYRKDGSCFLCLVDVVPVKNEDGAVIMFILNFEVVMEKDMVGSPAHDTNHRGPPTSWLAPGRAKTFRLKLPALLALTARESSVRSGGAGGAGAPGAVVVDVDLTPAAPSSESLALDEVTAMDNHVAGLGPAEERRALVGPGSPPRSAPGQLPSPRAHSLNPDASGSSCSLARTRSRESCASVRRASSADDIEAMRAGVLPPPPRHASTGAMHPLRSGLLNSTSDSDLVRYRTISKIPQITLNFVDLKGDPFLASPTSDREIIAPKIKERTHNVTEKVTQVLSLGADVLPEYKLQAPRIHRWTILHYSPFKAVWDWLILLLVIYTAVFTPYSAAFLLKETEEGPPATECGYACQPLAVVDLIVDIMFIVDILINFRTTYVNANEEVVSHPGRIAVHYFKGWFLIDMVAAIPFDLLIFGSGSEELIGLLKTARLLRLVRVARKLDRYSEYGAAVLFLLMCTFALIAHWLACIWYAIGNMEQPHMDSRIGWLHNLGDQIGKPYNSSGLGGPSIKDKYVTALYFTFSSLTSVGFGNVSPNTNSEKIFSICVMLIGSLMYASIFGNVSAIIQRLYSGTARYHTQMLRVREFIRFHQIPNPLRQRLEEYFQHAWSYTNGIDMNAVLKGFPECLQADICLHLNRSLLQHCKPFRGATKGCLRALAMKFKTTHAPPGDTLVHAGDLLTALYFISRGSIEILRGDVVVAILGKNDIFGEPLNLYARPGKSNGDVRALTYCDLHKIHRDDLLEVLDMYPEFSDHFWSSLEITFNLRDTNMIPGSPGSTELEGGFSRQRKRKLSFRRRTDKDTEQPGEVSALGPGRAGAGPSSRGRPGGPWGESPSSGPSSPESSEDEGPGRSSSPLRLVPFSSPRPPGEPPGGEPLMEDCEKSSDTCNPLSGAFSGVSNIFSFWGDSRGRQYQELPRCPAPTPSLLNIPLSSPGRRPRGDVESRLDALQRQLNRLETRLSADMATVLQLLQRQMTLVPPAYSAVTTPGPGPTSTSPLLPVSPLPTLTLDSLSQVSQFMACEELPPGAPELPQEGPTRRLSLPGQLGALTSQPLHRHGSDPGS

In order of rising “hERG current change (%, negative = inhibition) at 1uM” value:
1. N#C/C(=C/c1ccc(-c2ccccc2[N+](=O)[O-])o1)C(=O)NCCN1CCCCC1  -28.3%
2. CCC(C)(C)n1nnnc1CN1CCC(c2nc3ccc(C)cc3[nH]2)CC1  -25.7%
3. Cc1cc(C)cc(-n2nnc(C(=O)NCc3ccco3)c2N)c1  -12.3%
4. Cc1ccc(S(=O)(=O)N(NC2=NS(=O)(=O)c3ccccc32)C(=O)c2ccccc2)cc1  -10.8%
5. CCN(CC)C(=O)c1[nH]cnc1C(=O)NCC(=O)OC(C)(C)C  -9.07%
6. CCC(=O)N1c2ccc(S(=O)(=O)CCC(=O)N3CCN(c4ccccc4F)CC3)cc2CC1C (stereo not shown)  -7.5%
7. O=C(CNC(=O)c1cccc([N+](=O)[O-])c1)NC1CCCc2ccccc21 (stereo not shown)  -7.25%
8. O=S(=O)(Nc1cccc2ncccc12)c1cccs1  -5.29%
9. CCOC(=O)N1CCN(C(=O)CCc2ccc(S(=O)(=O)NCCc3ccccc3)cc2)CC1  -4.75%
10. O=C(c1cc([N+](=O)[O-])cc([N+](=O)[O-])c1)N(c1ccccn1)c1ccccn1  -3.99%
11. O=c1[nH]c2ccc(S(=O)(=O)N3CCN(C4CCCCC4)CC3)cc2[nH]c1=O  -2.82%
12. O=C(CCCN1C(=O)c2cccc3cccc(c23)C1=O)N1CCN(c2ccc(F)cc2)CC1  -0.672%
13. CN1CCN(C(=O)C(C(=O)c2ccc(F)cc2)n2ccccc2=O)CC1 (stereo not shown)  -0.557%
14. CC(C)(C)NC(=O)C(c1ccccn1)N(C(=O)c1csnn1)C1CCCC1 (stereo not shown)  0.174%
15. COc1ccc(NC(=O)C2CCCN2S(=O)(=O)c2ccc3c(c2)CCC(=O)N3)c(OC)c1 (stereo not shown)  1.58%
16. Cc1cc(C)c(NC(=O)CNC(=O)COC(=O)Cc2cccs2)c(C)c1  1.99%
17. COC(=O)c1ccc(Cn2nc(C)c([N+](=O)[O-])c2C)o1  2.01%
18. COCCNC(=O)c1ccc(Cn2c(SCC(=O)NCC3CCCO3)nc3ccc(Br)cc3c2=O)cc1 (stereo not shown)  2.05%
19. O=C(CSc1nc2ccccc2s1)NNC(=S)Nc1ccccc1  2.11%
20. COc1cc(-c2nnc(-c3cc(OC)c(OC)c(OC)c3)o2)cc(OC)c1OC  2.16%
21. COc1cccc(OCCCOc2ccccc2C(C)C)c1  2.38%
22. Cc1cccc(C(=O)N/N=C/C(C)Cc2ccc3c(c2)OCO3)c1 (stereo not shown)  3.08%
23. Cc1ccc2nc(C(=O)O)c(C(=O)O)nc2c1  3.75%
24. CCc1cc(C(=O)NNC(=S)NC(C)c2ccccc2)cs1 (stereo not shown)  4.52%
25. COc1ccc(-n2nc3c(c2NC(=O)c2ccccc2S(=O)(=O)C(F)F)CS(=O)(=O)C3)cc1  4.68%
26. COc1ccc2cc3cc(C(=O)NCC4CCCO4)oc3nc2c1 (stereo not shown)  4.72%
27. O=C(Nc1c2c(nn1-c1cccc(Cl)c1)CS(=O)C2)c1ccc2c(c1)OCO2 (stereo not shown)  5.39%
28. O=C(C1=NN[C@@H]2C(=O)N(c3ccccc3C(F)(F)F)C(=O)[C@H]12)c1cnccn1  5.43%
29. CN(c1ncc(C(F)(F)F)cc1Cl)N1C(=O)c2cccc([N+](=O)[O-])c2C1=O  5.72%
30. COc1ccc(N2CCN(C(=O)Cc3ccc(S(=O)(=O)N4CCOCC4)s3)CC2)cc1  6.08%
31. COc1cc2c(cc1C=O)OCO2  6.14%
32. COc1ccc(NC(=S)NNC(=O)Cn2nc([N+](=O)[O-])cc2C)cc1  6.52%
33. CC(=O)COc1ccc2oc(=O)cc(-c3cc4ccccc4o3)c2c1  7.1%
34. COc1cccc(CN(C)C(=O)c2cccnc2SC)c1OC  7.4%
35. CCOc1ccccc1N1CC(C(=O)Nc2ccccc2CC)CC1=O (stereo not shown)  7.8%
36. CCC(=O)N1CCc2cc(S(=O)(=O)N3CCN(c4ccccn4)CC3)ccc21  7.91%
37. Cc1cc(C)c2cc3c(N)c(C(=O)Nc4c(C)[nH]c(=O)[nH]c4=O)sc3nc2c1  8.22%
38. COc1ccc(-c2cc(C(=O)NNC3=NCCC3)c3c(C)nn(-c4ccccc4)c3n2)cc1  8.4%
39. COc1ccc(Br)cc1/C=c1\sc2nc(-c3ccco3)nn2c1=O  8.49%
40. S=c1[nH]c(-c2ccc(Br)cc2)cn1CCc1ccccc1  8.58%
41. CCNC(=O)NC(=O)C(C)Oc1ccc(C(=O)OC)cc1 (stereo not shown)  8.65%
42. Cc1ccc(C)c(NC(=O)CSc2nccn2Cc2ccco2)c1  8.75%
43. O=C(Nc1cc2c(cc1C(=O)O)OCCCO2)c1ccc(F)cc1F  8.81%
44. CC1(C)CC(=O)C(C=Nc2ccc(NC3=C(C#N)C(=O)CC(C)(C)C3)cc2)=C(O)C1  9.1%
45. Cc1cc(C)n(-c2ccc(C(=O)Nc3cc(S(=O)(=O)N(C)C)ccc3Cl)cc2)n1  9.18%
46. NS(=O)(=O)c1ccc(NC(=O)c2ccccc2Cl)cc1  9.39%
47. CCOP(=O)(OCC)c1nc(-c2ccc(F)cc2)oc1NCc1ccccc1  9.39%
48. O=C(NC1CCCC1)c1cccc2c1C(=O)c1ccc(Cl)cc1S2(=O)=O  9.45%
49. COc1ccc([N+](=O)[O-])cc1NC(=O)CCS(=O)(=O)c1ccc(Br)cc1  9.46%
50. CC(=O)Nc1ccc(N2C(=O)c3ccc(S(=O)(=O)c4ccc(C(=O)O)cc4)cc3C2=O)cc1  9.5%
51. C=C1C[C@H]2[C@@H]3C=C(C)C4=CC(=O)CC[C@]4(C)[C@H]3CC[C@]2(C)[C@@]1(OC(C)=O)C(C)=O  9.54%
52. O=C(CN1CCNCC1)Nc1ccccc1Cl  9.85%
53. Cc1cc(Cl)ccc1NC(=S)NCc1ccc(S(N)(=O)=O)cc1  9.94%
54. CC1CCC(NC(=O)Cn2c3c(c(-c4ccccc4Cl)cc2=O)CCC3)CC1 (stereo not shown)  9.99%
55. CC(=O)N1CCN(CC(=O)Nc2ccc(Cl)c(S(=O)(=O)N(C)C)c2)CC1  10.2%
56. CCS(=O)(=O)N1CCC(C(=O)Oc2ccc(Br)cc2)CC1  10.7%
57. O=C(Nc1ccc(N2CCCC2)cc1)c1ccccc1[N+](=O)[O-]  10.9%
58. O=C1CC(c2ccc3c(c2)OCCO3)Oc2ccccc21 (stereo not shown)  11%
59. O=[N+]([O-])c1cc(S(=O)(=O)Nc2ccccc2)ccc1NCc1cccnc1  11.1%
60. O=C(Oc1ccc2c(c1)CCC2)N1CCOCC1  11.3%
61. CCOc1ncccc1C(=O)OCC(=O)c1ccc(C)c(C)c1  11.4%
62. Cn1c(C(=O)OC(C(=O)NC2CCCCC2)c2ccccn2)cc2sccc21 (stereo not shown)  11.5%
63. COc1ccc([C@H]2CC(=O)C=C(c3cccc(Cl)c3)C2)cc1  11.8%
64. CC(=O)Nc1ccc(S(=O)(=O)N2CCn3cccc3C2C)cc1 (stereo not shown)  11.8%
65. Cc1cccc(C)c1N1CCN(S(=O)(=O)N(C)C)CC1  12%
66. COc1ccc(/C=C2\CCCC(C(=O)C(F)(F)F)=C2O)cc1  12.7%
67. COC(=O)c1ccccc1N=Cc1c(O)[nH]c(=S)[nH]c1=O  12.9%
68. COCCNC(=O)CSc1nc2c(n1-c1ccccc1)CCCC2  13.3%
69. Cc1ccc(OCc2cc(C(=O)N(C)Cc3cc(C4CC4)n[nH]3)no2)cc1C  13.4%
70. O=C(Cc1n[nH]c(=O)[nH]c1=O)N/N=C/c1ccccc1  13.6%
71. O=C1c2ccccc2C(=O)N1CCC(c1ccccc1)c1ccco1 (stereo not shown)  13.8%
72. CC(=O)c1cnc2c(-c3ccccc3)c(C)nn2c1C  13.9%
73. Cc1ccc(SCc2ccc(C(=O)Nc3ccccc3C(=O)NC(C)C)cc2)cc1  14%
74. COc1ccccc1N1CCN(C(=O)C2CCCN(S(=O)(=O)c3ccc4c(c3)CCCN4C(C)=O)C2)CC1 (stereo not shown)  14.1%
75. CCCCCCOC(=O)Cc1c(C)nc(N)[nH]c1=O  14.2%
76. Cc1cccc(C(=O)N[C@H](C(=O)Nc2cc(S(=O)(=O)N3CCCCC3)ccc2C)C(C)C)c1  14.5%
77. COc1cc(/C=N/Nc2ccccc2)ccc1O  14.5%
78. Cc1ccc(N/N=C/c2c(O)n(-c3ccccc3)c(=O)[nH]c2=O)cc1  14.6%
79. Cc1ccc(C2CC(C(F)(F)F)n3nc(C(=O)Nc4c(C)n(C)n(-c5ccccc5)c4=O)cc3N2)cc1 (stereo not shown)  14.9%
80. Cc1cc(=O)n(CC(=O)NC2CC2)c2c1c(C)nn2-c1ccccc1  16.7%
81. COc1ccc(/C=C2\SC(=S)N(CCC(=O)N3CCOCC3)C2=O)cc1  17.9%
82. COc1ccc(S(=O)(=O)N2CCC(C(N)=O)CC2)cc1C(=O)N1CCCCCC1  20.3%
83. Clc1ccccc1-c1nnc2n1CCCCC2  21.7%
84. Cc1ccc(-c2noc(CN3CCCCC3)n2)cc1  31.5%
85. CC(C)CSC1=NSC2=NC(=O)/C(=C\c3cccs3)C(=N)N12  32.7%
